# Measured values taken from article PMC4336329 (PLoS ONE, 2015).
# In all, about 310,000 compounds went through this assay and about 14,000 (4.5%) showed an effect of 50% or more. Effects have a minus sign here. The list shows a part of the results.
# Molecular target: human ether-à-go-go-related gene (hERG) potassium channel (human, UniProt Q12809)
# Assay: primary screen, population patch clamp on CHO cells stably expressing hERG
# 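Further: peak tail current of the secondary pulse compared with the same well before compound.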
# Sequence of human ether-à-go-go-related gene (hERG) potassium channel (Q12809 whole entry, looked up): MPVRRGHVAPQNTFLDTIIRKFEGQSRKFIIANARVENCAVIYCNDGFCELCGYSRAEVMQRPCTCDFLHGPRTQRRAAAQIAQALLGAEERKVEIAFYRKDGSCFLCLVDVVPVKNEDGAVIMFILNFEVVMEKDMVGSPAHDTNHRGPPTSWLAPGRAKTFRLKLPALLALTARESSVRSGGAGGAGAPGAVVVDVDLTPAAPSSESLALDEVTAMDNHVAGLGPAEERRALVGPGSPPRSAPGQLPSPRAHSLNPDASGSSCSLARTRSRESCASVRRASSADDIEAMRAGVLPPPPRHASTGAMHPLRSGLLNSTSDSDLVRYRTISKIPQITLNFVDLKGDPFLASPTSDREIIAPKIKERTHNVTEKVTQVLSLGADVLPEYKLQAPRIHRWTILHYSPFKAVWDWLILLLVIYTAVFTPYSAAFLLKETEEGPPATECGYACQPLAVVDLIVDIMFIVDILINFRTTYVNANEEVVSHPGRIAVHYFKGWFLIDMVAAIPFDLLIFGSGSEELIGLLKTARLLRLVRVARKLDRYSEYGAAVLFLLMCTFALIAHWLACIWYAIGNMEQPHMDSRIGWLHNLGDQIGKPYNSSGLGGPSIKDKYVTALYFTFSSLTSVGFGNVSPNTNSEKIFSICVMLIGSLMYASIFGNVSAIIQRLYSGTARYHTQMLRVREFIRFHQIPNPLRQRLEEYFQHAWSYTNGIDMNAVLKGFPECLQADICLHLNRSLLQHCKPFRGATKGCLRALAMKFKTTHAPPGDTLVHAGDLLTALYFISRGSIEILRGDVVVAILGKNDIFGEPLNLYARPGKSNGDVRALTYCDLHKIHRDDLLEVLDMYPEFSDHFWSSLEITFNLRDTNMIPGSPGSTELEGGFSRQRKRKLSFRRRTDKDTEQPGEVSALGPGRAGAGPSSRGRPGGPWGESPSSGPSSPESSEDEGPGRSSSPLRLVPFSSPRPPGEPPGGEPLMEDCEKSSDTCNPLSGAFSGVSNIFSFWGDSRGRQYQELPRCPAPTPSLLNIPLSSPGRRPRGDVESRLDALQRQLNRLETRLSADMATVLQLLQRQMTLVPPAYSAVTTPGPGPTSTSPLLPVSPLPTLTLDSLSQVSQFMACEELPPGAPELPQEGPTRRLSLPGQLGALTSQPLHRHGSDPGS
row,SMILES,"hERG current change (%, negative = inhibition) at 10uM [%]"
1,O=C(c1ccccc1F)N1CCN(c2ccccn2)CC1,4.54
2,COC(=O)C1=C(C)NC(C)=C(C(=O)OC)C1C(=O)OCc1nnc(-c2ccccc2)o1,2.12
3,O=C(CCn1cnnn1)Nc1cccc(F)c1,21.3
4,Cc1ccc(OCC(=O)NCCO)cc1C,7.86
5,COc1cccc(OCC(=O)Nc2ccccc2NC(C)=O)c1,16.9
6,COc1ccc(NC(=O)c2c(C)nn(Cc3ccccc3Cl)c2Cl)cc1Cl,0.49
7,O=C(NC1(C(F)(F)F)C(=O)Nc2c1c(=O)[nH]c(=O)n2Cc1ccco1)C1CCCCC1 (stereo not drawn),20.7
8,COc1ccccc1N(CC(O)CN1C(C)CCCC1C)S(=O)(=O)c1ccccc1 (stereo not drawn),-18.1
9,CC1=C(C(=O)N2CCOCC2)C(c2c(F)cccc2F)NC(=O)N1 (stereo not drawn),26.6
10,O=C(CN1CCN(c2ccccn2)CC1)NC1CCCC1,-2.36
11,CCc1nnc(NS(=O)(=O)c2ccc(NC(=S)NC(=O)c3ccc(Br)cc3)cc2)s1,6.73
12,CCOC(=O)C1CCN(C(=O)c2cc3c(C)cc(C)cc3[nH]2)CC1,-15.2
13,COn1c2c(c3c4no[n+]([O-])c4ccc31)CCCC2,15.6
14,COc1cc(OC)cc(C(=O)OCn2nnc3ccccc3c2=O)c1,1.97
15,CN1CCN(C(=O)/C(=C/c2cccnc2)NC(=O)c2cccc(Br)c2)CC1,-2.87
16,CN(C)C(=O)N1CCC(C(=O)NCc2ccc3c(c2)OCO3)CC1,5.54
17,Cc1ccc(-n2c(=S)sc3c(=O)n(-c4ccccc4F)c(SCC(=O)O)nc32)cc1C,15.7
18,CSC1=NSC2=NC(=O)/C(=C\c3coc4ccccc4c3=O)C(=N)N12,-1.98
19,O=C(Nc1ccc(F)cc1)Nc1nnc(COc2ccccc2F)s1,-15.8
20,O=c1[nH]c2cc3c(cc2cc1CN(Cc1cccnc1)Cc1nnnn1Cc1ccco1)OCCO3,-4.69
21,Br.Cc1nc2ncccn2c1-c1csc(Nc2ccc(S(N)(=O)=O)cc2)n1,0.703
22,C=CCn1c(SCC(=O)Nc2c(C)n(C)n(-c3ccccc3)c2=O)nc2ccccc2c1=O,-32.9

row,SMILES,"hERG current change (%, negative = inhibition) at 10uM [%]"
1,CCOP(=S)(OCC)c1ccc(N(C)C)cc1,-4.68
2,COc1ccc(/C(C)=N/Nc2ccc(F)cc2F)c(O)c1,6.58
3,Cc1ccc(S(=O)(=O)NCC(=O)NCC(=O)N2CCN(c3ncccn3)CC2)cc1C,-13.9
4,CCCC[C@@H]1CN=C(N)N1CCc1cccc(F)c1,-9.82
5,CCCCn1nc2cc(C(=O)NCc3ccco3)ccc2c1OCC,-9.45
6,O=C(CSc1ncccn1)NCCc1ccccc1,-7.71
7,CCSc1c(C(=O)NC)ccc2c1C(=O)c1ccccc1C2=O,8.37
8,Cc1ccc(NC(=O)CCCn2nc(C)c3c(C)n(-c4ccccc4)nc3c2=O)c(Cl)c1,19.4
9,O=C(COC(=O)c1cc(=O)[nH]c2ccccc12)Nc1cccc(S(=O)(=O)N2CCOCC2)c1,-3.01
10,C[n+]1nc(Nc2ccccc2)sc1-c1ccc(O)cc1.[Cl-],-2.05
11,COc1ccccc1NC(=O)c1cc(-c2ccc(C)o2)nc2ccccc12,-60.7
12,Cc1nn(C(=O)c2ccco2)c(C)c1CN1C(=O)c2ccccc2C1=O,-12.2
13,Nc1ccc(Br)cc1-c1nc2ccccc2[nH]c1=O,3.68
14,CN(C(=O)COC(=O)c1nc(Cl)ccc1Cl)C1CCS(=O)(=O)C1 (stereo not drawn),11.5
15,c1ccc(CC2CCN(C(c3cccs3)c3nnnn3C3CCCC3)CC2)cc1 (stereo not drawn),2.61
16,Cc1c(C(=O)Nc2ccccc2)cn2c(nc3ccccc32)c1C#N,6.24
17,COc1cccc(CNC(=O)C2CCN(S(=O)(=O)N3CCCCC3)CC2)c1,-18.1
18,COc1ccc(S(=O)(=O)N2CCN(C(C)C(=O)Nc3ccc(C(C)C)cc3)CC2)cc1 (stereo not drawn),-20.6
19,CC(=O)c1ccc(OCc2cc(C(=O)N3CCCCCCC3)no2)cc1,-19.8
20,COc1ccccc1NC(=O)c1ccc(S(=O)(=O)N(C)C)cc1,3.79
21,COc1ccc(C(=O)NC(=S)Nc2ccc(CN3CCOCC3)cc2)cc1OC,-7.16
22,CCOc1ccccc1NC(=O)c1cc(Cl)ccc1NC(=O)c1ccco1,-4.54

row,SMILES,"hERG current change (%, negative = inhibition) at 10uM [%]"
1,Cc1nn(CC(=O)Nc2c(F)cc(F)cc2Br)c(=O)c2cccn12,18.9
2,COC(=O)c1nn(-c2ccccc2)ccc1=O,19.1
3,CN1CCN(c2oc(-c3ccccc3)nc2S(=O)(=O)c2ccc(Br)cc2)CC1,-68.6
4,COc1cccc(C2SCC(=O)N2c2ccc(Cl)cc2)c1OC (stereo not drawn),-36.1
5,Cc1cccc(NC(=O)c2cc(-c3ccccn3)nc3ccccc23)c1C,12.5
6,CCc1ccc(C2c3[nH]c4ccccc4c3CCN2C(=O)c2ccc(=O)n(C)n2)cc1 (stereo not drawn),-0.653
7,Cc1ccc(NC2Nc3cc(C)nn3S2)c(C)c1 (stereo not drawn),0.514
8,COc1ccc(/C=C(/NC(=O)c2ccco2)C(=O)N2CCOCC2)cc1,2.13
9,COc1ccc2nc(Nc3nc4cc5c(cc4s3)OCO5)sc2c1,6.67
10,COCCNC(=O)C(=O)N/N=C(\C)CC(=O)Nc1ccc(Cl)cc1Cl,-2.81
11,COC(=O)/C(=C\Nc1ccc(Cl)cc1Cl)NC(=O)c1ccc(Cl)cc1Cl,-6.66
12,Clc1ccc(CCNc2ncnc3nc[nH]c23)cc1,0.634
13,CC(C)(C)NC(=O)CSc1nc(-c2ccccc2)cc(=O)[nH]1,23
14,COCCn1c(=O)[nH]c2cc(C(=O)NCc3ccccc3)ccc2c1=O,6.78
15,Cc1cc(-c2ccc(S(=O)(=O)N3CCCCC3)s2)on1,12.5
16,NC(=O)c1cccn1-c1ncc(C(F)(F)F)cc1Cl,7.9
17,Cc1ccc(CNC(=O)COC(=O)Cc2ccc(-c3ccccc3)cc2)cc1,13.8
18,COc1ccc(Nc2nc(C)nc3c2oc2ccccc23)cc1,3.77
19,Cc1sc2nc(CSCC(=O)Nc3ccc(C(F)(F)F)cc3)[nH]c(=O)c2c1C,-21.1
20,O=C(CN(C(=O)c1csnn1)c1cccc(F)c1)NCc1ccc(F)cc1,-25.7
21,CCOC(=O)c1cc(C)n(Cc2ccc(OCC)c(OC)c2)c1C,-3.03
22,CCCCNC(=O)O[C@@H]1C[C@H]2CCC(=O)N3CC[C@@H](C1)[C@@H]23,3.18

row,SMILES,"hERG current change (%, negative = inhibition) at 10uM [%]"
1,COc1cccc(C(=O)NCc2ccco2)c1,17.3
2,COc1ccc(CCNC(=O)[C@H](C)N2C(=O)N3CCc4c([nH]c5ccccc45)[C@@]3(C)C2=O)cc1OC,-10.1
3,Nc1c2c(nc3c1CCCC3)CCCC2.O=C(O)c1cc[nH]c(=O)c1,-10.1
4,COC(=O)C1=C(C)NC(C)=C(C(=O)OC)C1c1cc2ccc(C)cc2[nH]c1=O,9.13
5,CCOC(=O)c1cc2sc(C)cc2n1CC(=O)N(CC)CC,-2.35
6,O=C(/C=C/c1ccccc1Cl)Nc1cccnc1,5.98
7,Cc1occc1C(=O)NCc1ccco1,31
8,COc1ccc2oc(=O)c(-c3nnc(N)s3)cc2c1,18.5
9,O=C(COC(=O)Cc1ccccc1F)Nc1cccc(S(=O)(=O)NC2=NCCCCC2)c1,-13.1
10,Cc1ccn2c(/C=N/OCc3cccc(F)c3)c(-c3ccc(Cl)cc3)nc2c1,-10.1
11,CCN(CC)CCNC(=O)C1CCC(=O)N(c2ccc(OC)cc2)C1c1ccc(F)cc1 (stereo not drawn),-5.79
12,CCOC(=O)c1c(/N=C/N(C)C)sc(/C=N/Nc2ccccc2)c1-c1ccccc1Cl,22.5
13,CCC(C)Sc1ccc([C@@H]2[C@@H]3C(=O)N(C)C(=O)[C@@H]3[C@]3(C(=O)OC)CCCCN23)cc1OC.O=C(O)C(F)(F)F (stereo partly drawn),-22
14,Cc1nc(-c2ccc3c(c2)CCC(=O)N3)cs1,5.1
15,O=C(Nc1nnc(C23CC4CC(CC(C4)C2)C3)s1)c1ccco1,13.2
16,O=C(NCc1ccccc1)C1CC(=O)N(C2CCCCCC2)C1 (stereo not drawn),16.8
17,O=C1NCCN1Cc1ccccc1,-8.57
18,CC1CN(C)C(C)(C)CC1(O)c1ccccc1.Cl (stereo not drawn),3.3
19,Cc1cc(C)n(CC(=O)N/N=C/c2c[nH]c3ccccc23)n1,15
20,CC(=O)OCC(=O)[C@@]1(O)CC[C@H]2[C@@H]3C[C@H](C)C4=CC(=O)C=C[C@]4(C)[C@H]3[C@@H](O)C[C@@]21C,16.4
21,Cc1ccc(-c2nnc3c4ccccc4c(C)nn23)cc1S(=O)(=O)N1CCN(C)CC1,-6.7
